Test results taken from a collection of fitness landscapes (doi:10.1126/science.1257360).
The other results are listed elsewhere or left out.

B1: PhoQ; a variant is named by its letters at X, in order, P23837 (parent)
chain: MKKLLRLFFPLSLRVRFLLATAAVVLVLSLAYGMVALIGYSVSFDKTTFRLLRGESNLFYTLAKWENNKLHVELPENIDKQSPTMTLIYDENGQLLWAQRDVPWLMKMIQPDWLKSNGFHEIEADVNDTSLLLSGDHSIQQQLQEVREDDDDAEMTHSVAVNVYPATSRMPKLTIVVVDTIPVELKSSYMVWSWFIYVLSANLLLVIPLLWVAAWWSLRPIEALAKEVRELEEHNRELLNPATTRELTSLVRNLNRLLKSERERYDKYRTTLTDLTHSLKTPLXXLQXXLRSLRSEKMSVSDAEPVMLEQISRISQQIGYYLHRASMRGGTLLSRELHPVAPLLDNLTSALNKVYQRKGVNISLDISPEISFVGEQNDFVEVMGNVLDNACKYCLEFVEISARQTDEHLYIVVEDDGPGIPLSKREVIFDRGQRVDTLRPGQGVGLAVAREITEQYEGKIVAGESMLGGARMEVIFGRQHSAPKDE

Variants of: B1
Assay: enrichment ratio after two sorts for PhoP signalling (ratio (wild type AVST 3.29)); higher = more functional
Conditions: with PhoP (E. coli)
Variant GELD has an enrichment ratio of at most 0.25.
HYNM showed an enrichment ratio of at most 0.25.
Variant GHLR has an enrichment ratio of at most 0.25.
NGCN showed an enrichment ratio of at most 0.25.
With LFNF the enrichment ratio was at most 0.25.
HKWV gave an enrichment ratio of at most 0.25.
In the case of ALRV, the enrichment ratio is reported as at most 0.25.
For YRAA, the enrichment ratio was at most 0.25.
For YHPH, the enrichment ratio was at most 0.25.
Variant QREV has an enrichment ratio of at most 0.25.
In the case of SPCG, the enrichment ratio is reported as 1.67.
For AKYY, the enrichment ratio was at most 0.25.
AQIC showed an enrichment ratio of 2.92.
DTDP gave an enrichment ratio of at most 0.25.
For FGGH, the enrichment ratio was at most 0.25.
MFDL gave an enrichment ratio of at most 0.25.
VIHD gave an enrichment ratio of at most 0.25.
In the case of VLIF, the enrichment ratio is reported as at most 0.25.
QCPP was tested, and the enrichment ratio was at most 0.25.
ISLN showed an enrichment ratio of at most 0.25.
Variant MPHM has an enrichment ratio of at most 0.25.
VRYA was tested, and the enrichment ratio was at most 0.25.
For TYNK, the enrichment ratio was at most 0.25.
Variant QCYN has an enrichment ratio of at most 0.25.
RTDD showed an enrichment ratio of at most 0.25.
For VCHP, the enrichment ratio was at most 0.25.
DDWF was tested, and the enrichment ratio was at most 0.25.
In the case of VDKW, the enrichment ratio is reported as at most 0.25.
QHGA showed an enrichment ratio of at most 0.25.
For NWIW, the enrichment ratio was at most 0.25.
MNVV showed an enrichment ratio of 1.59.
With PLCK the enrichment ratio was at most 0.25.
FNLY was tested, and the enrichment ratio was at most 0.25.
In the case of HVSM, the enrichment ratio is reported as at most 0.25.
LRCP gave an enrichment ratio of at most 0.25.
AANF was tested, and the enrichment ratio was at most 0.25.
NCFW was tested, and the enrichment ratio was at most 0.25.
LANW was tested, and the enrichment ratio was at most 0.25.
With IYQE the enrichment ratio was at most 0.25.
IVPD showed an enrichment ratio of at most 0.25.
Work on GQRL yielded an enrichment ratio of at most 0.25.
NEET gave an enrichment ratio of at most 0.25.
EYLW was tested, and the enrichment ratio was at most 0.25.
PSND was tested, and the enrichment ratio was at most 0.25.
Variant RCEG has an enrichment ratio of at most 0.25.
In the case of VTSY, the enrichment ratio is reported as 0.277.
For HNNY, the enrichment ratio was at most 0.25.
For GCAS, the enrichment ratio was at most 0.25.
With WNKE the enrichment ratio was at most 0.25.
VHQA gave an enrichment ratio of 0.499.
AYCI gave an enrichment ratio of at most 0.25.
SMRY was tested, and the enrichment ratio was at most 0.25.
In the case of KSYD, the enrichment ratio is reported as at most 0.25.
DSCS was tested, and the enrichment ratio was at most 0.25.
TCGM showed an enrichment ratio of 15.3.
Variant WAKE has an enrichment ratio of at most 0.25.
TWFI gave an enrichment ratio of at most 0.25.
YFAT showed an enrichment ratio of at most 0.25.
TGHE gave an enrichment ratio of 9.44.
In the case of RGYW, the enrichment ratio is reported as at most 0.25.
In the case of TWTQ, the enrichment ratio is reported as at most 0.25.
VGAA gave an enrichment ratio of at most 0.25.
PHWY gave an enrichment ratio of at most 0.25.
Work on FLWE yielded an enrichment ratio of at most 0.25.
Variant AAPW has an enrichment ratio of at most 0.25.
Work on LHMK yielded an enrichment ratio of at most 0.25.
FPVH gave an enrichment ratio of at most 0.25.
NFNM showed an enrichment ratio of at most 0.25.
TEWT gave an enrichment ratio of 12.8.
YNMF showed an enrichment ratio of at most 0.25.
For RWHT, the enrichment ratio was at most 0.25.
EPAN gave an enrichment ratio of at most 0.25.
Work on TDEY yielded an enrichment ratio of at most 0.25.
Variant WNMF has an enrichment ratio of at most 0.25.
Variant ADSV has an enrichment ratio of 4.14.
DWKF was tested, and the enrichment ratio was at most 0.25.
AYKH showed an enrichment ratio of at most 0.25.
Work on DYSG yielded an enrichment ratio of at most 0.25.
Work on LDCD yielded an enrichment ratio of at most 0.25.
With GHRT the enrichment ratio was at most 0.25.
In the case of TPWS, the enrichment ratio is reported as at most 0.25.
For SHRM, the enrichment ratio was at most 0.25.
WRTK showed an enrichment ratio of at most 0.25.
In the case of CSAY, the enrichment ratio is reported as at most 0.25.
With NDLV the enrichment ratio was at most 0.25.
With HVMY the enrichment ratio was at most 0.25.
Variant NMPY has an enrichment ratio of at most 0.25.
Work on YYEF yielded an enrichment ratio of at most 0.25.
For WPQT, the enrichment ratio was at most 0.25.
DHNF was tested, and the enrichment ratio was at most 0.25.
KQQA was tested, and the enrichment ratio was at most 0.25.
In the case of TWNG, the enrichment ratio is reported as at most 0.25.
In the case of HDKF, the enrichment ratio is reported as at most 0.25.
In the case of HWAN, the enrichment ratio is reported as at most 0.25.
For KVFW, the enrichment ratio was at most 0.25.
With QMTE the enrichment ratio was at most 0.25.
QMYG was tested, and the enrichment ratio was at most 0.25.
Work on LMHI yielded an enrichment ratio of at most 0.25.
HSSS showed an enrichment ratio of at most 0.25.
Variant ASKS has an enrichment ratio of at most 0.25.
With DRWP the enrichment ratio was at most 0.25.
MVAV showed an enrichment ratio of 11.4.
Variant KADP has an enrichment ratio of at most 0.25.
Work on QKCD yielded an enrichment ratio of at most 0.25.
PTQQ showed an enrichment ratio of at most 0.25.
In the case of NESR, the enrichment ratio is reported as at most 0.25.
Variant LAPN has an enrichment ratio of at most 0.25.
Work on WKQC yielded an enrichment ratio of at most 0.25.
Variant IFLW has an enrichment ratio of at most 0.25.
YIVF showed an enrichment ratio of at most 0.25.
DEMY showed an enrichment ratio of at most 0.25.
For WTFM, the enrichment ratio was at most 0.25.
YSFQ was tested, and the enrichment ratio was at most 0.25.
Work on RRPP yielded an enrichment ratio of at most 0.25.
VPED was tested, and the enrichment ratio was at most 0.25.
With NIRL the enrichment ratio was at most 0.25.
Work on TQMF yielded an enrichment ratio of 1.83.
In the case of HFMH, the enrichment ratio is reported as at most 0.25.
Variant QPTR has an enrichment ratio of at most 0.25.
LTHK showed an enrichment ratio of at most 0.25.
HLTE gave an enrichment ratio of at most 0.25.
AWEL was tested, and the enrichment ratio was at most 0.25.
For ILHN, the enrichment ratio was at most 0.25.
EMMC showed an enrichment ratio of at most 0.25.
HSSM gave an enrichment ratio of 1.54.
With YWTN the enrichment ratio was at most 0.25.
Work on DGVN yielded an enrichment ratio of at most 0.25.
Variant IPPW has an enrichment ratio of at most 0.25.
Work on RVPG yielded an enrichment ratio of at most 0.25.
Variant VQLW has an enrichment ratio of at most 0.25.
With EPVM the enrichment ratio was at most 0.25.
ALHL showed an enrichment ratio of at most 0.25.
PVAG gave an enrichment ratio of at most 0.25.
With SNEW the enrichment ratio was at most 0.25.
In the case of WGWF, the enrichment ratio is reported as at most 0.25.
YQHR was tested, and the enrichment ratio was at most 0.25.
Variant FPDD has an enrichment ratio of at most 0.25.
VTVC showed an enrichment ratio of at most 0.25.
GFEL was tested, and the enrichment ratio was at most 0.25.
In the case of ENCG, the enrichment ratio is reported as at most 0.25.
SHGM showed an enrichment ratio of at most 0.25.
FAWM was tested, and the enrichment ratio was at most 0.25.
With AVVQ the enrichment ratio was 3.9.
FWLM gave an enrichment ratio of at most 0.25.
KDAV gave an enrichment ratio of at most 0.25.
Variant TNGA has an enrichment ratio of 4.37.
With MQQH the enrichment ratio was at most 0.25.
DPPC showed an enrichment ratio of at most 0.25.
With NHVK the enrichment ratio was at most 0.25.
Work on SPWL yielded an enrichment ratio of at most 0.25.
Work on APCP yielded an enrichment ratio of at most 0.25.
In the case of EQYW, the enrichment ratio is reported as at most 0.25.
In the case of SMVC, the enrichment ratio is reported as 1.02.
